Molecules are shown by their SMILES. The list shows a part of the results.

The assay has as its system HSkMC (human skeletal muscle cells). Nature of the assay: cytotoxicity call (relative viability < 0.9). To be noted: 10 µM.
Consider `COc1ccc(CNC(=O)N(C)C[C@@H]2OCc3ccccc3-c3c(n(C)c4ccccc34)C(=O)N([C@@H](C)CO)C[C@@H]2C)cc1`, for which the cytotoxicity call was “inactive”. Regarding `COc1ccc(CN(C)C[C@@H]2OCCCC[C@H](C)Oc3ccc(NS(=O)(=O)c4ccc(F)cc4)cc3C(=O)N([C@H](C)CO)C[C@H]2C)cc1`, the cytotoxicity call was “inactive”.

With `COc1ccc(NC(=O)Nc2ccc3c(c2)CC(=O)N([C@H](C)CO)C[C@H](C)[C@@H](CN(C)Cc2ccc(Oc4ccccc4)cc2)O3)cc1`, the cytotoxicity call was “inactive”. As for `O=C(COc1ccc(S(=O)(=O)N2CCOCC2)cc1)NCCCn1ccnc1`, the cytotoxicity call was “inactive”. Then `CSC[C@H]1O[C@H](n2ccc3c(N)ncnc32)[C@@H](O)[C@H]1O`, with “inactive”. For `C[C@@H]1CN([C@H](C)CO)C(=O)Cc2cc(NC(=O)CCCCCC(=O)Nc3ccccc3N)ccc2O[C@@H]1CN(C)C(=O)Nc1ccc(C(F)(F)F)cc1`, the cytotoxicity call is “inactive”.

`C[C@@H]1CN([C@@H](C)CO)C(=O)c2cc(NC(=O)Nc3ccc(C(F)(F)F)cc3)ccc2O[C@@H](C)CCCCO[C@H]1CN(C)Cc1ccc2c(c1)OCO2`: the cytotoxicity call was “active”. Consider `CN1C(=O)c2cc(NC(=O)c3cnccn3)ccc2OC[C@H]2O[C@@H](CC(=O)NCC3CCCCC3)CC[C@H]21`, for which the cytotoxicity call was “inactive”. For `COc1ccc(S(=O)(=O)N(C)C[C@@H]2OCCCC[C@H](C)Oc3ccc(NC(=O)Nc4ccccc4)cc3C(=O)N([C@H](C)CO)C[C@H]2C)cc1`, the cytotoxicity call was “inactive”. In the case of `CC(C)NC(=O)N1Cc2cc(C(=O)NC3CCCCC3)nc(-c3cccc(-c4cccnc4)c3)c2[C@H]1CCO`, the cytotoxicity call was “active”. As to `Cc1noc(C)c1NC(=O)N(C)C[C@@H]1Oc2ccc(NC(=O)c3ccncc3)cc2CC(=O)N([C@@H](C)CO)C[C@H]1C`, the cytotoxicity call was “inactive”. The same measure for `O=C(O)CSc1ncnc2nc[nH]c12`: “inactive”; for `C[C@H]1CN([C@@H](C)CO)S(=O)(=O)c2ccc(C#Cc3ccc(F)cc3)cc2O[C@H]1CN(C)S(=O)(=O)c1ccc(F)cc1`: “inactive”; for `C[C@@H]1CC[C@H](C)N1c1cc(C(F)(F)F)cc(C(F)(F)F)c1`: “inactive”. On to `C[C@@H](OCc1ccccc1)[C@H]1NC(=O)[C@@]23C(=O)N[C@@H](Cc4ccccc4)[C@H]2[C@H](C)[C@@]2(C)O[C@H]2[C@@H]3/C=C/C/C=C\CNC(=O)CNC1=O`, for which the cytotoxicity call is “inactive”. For `O=C(CN1CCOCC1)NCC[C@H]1CC[C@H](NS(=O)(=O)c2ccc(Cl)cc2)[C@H](CO)O1`, the cytotoxicity call is “inactive”. Regarding `COc1ccc(CCN(C)CCCOc2ccc(S(=O)(=O)c3[nH]c4ccccc4c3C(C)C)cc2)cc1OC`, the cytotoxicity call is “active”. In the case of `O=C(CCCCCCC(=O)Nc1ccccc1O)N/N=C/c1cc(Br)c(O)c(Br)c1`, the cytotoxicity call is “inactive”.

In the case of `C[N+](C)(C)CCCC[C@@H]1NC(=O)[C@H]2C[C@@H](C(=O)NCCCCCCNC(=O)CS)[C@@H](c3ccc(O)cc3)N2C1=O`, the cytotoxicity call is “inactive”. `CO[C@H]1CN(C)C(=O)c2cc(NS(C)(=O)=O)ccc2OC[C@@H](C)N(C(=O)C2CCOCC2)C[C@H]1C`: the cytotoxicity call is “inactive”.

`C[C@@H]1CN([C@H](C)CO)C(=O)Cc2cc(NC(=O)Nc3ccc(F)cc3)ccc2O[C@@H]1CN(C)C(=O)Nc1ccc(C(F)(F)F)cc1`: the cytotoxicity call was “inactive”. Turning to `C[C@H](CO)N1C[C@H](C)[C@H](CN(C)C(=O)Nc2ccccc2)Oc2ccc(NS(C)(=O)=O)cc2CC1=O`, the cytotoxicity call is “inactive”. As to `C=CC[C@H](CC(=O)N(CCO)Cc1ccccc1)C(=O)N[C@H](COC(=O)[C@@H](CC=C)Cc1ccc(F)cc1)C(C)(C)C`, the cytotoxicity call was “inactive”. As for `C[C@@H]1COCS(=O)(=O)N1`, the cytotoxicity call was “inactive”.

For the compound `C[C@@H]1CN([C@@H](C)CO)C(=O)c2cccc(NC(=O)Nc3ccccc3)c2O[C@H]1CN(C)S(C)(=O)=O`, the cytotoxicity call is “inactive”. In the case of `O=C(/C=C/c1ccc(O)c(O)c1)O[C@H]1[C@H](O)C[C@](OC(=O)/C=C/c2ccc(O)c(O)c2)(C(=O)O)C[C@H]1O`, the cytotoxicity call was “inactive”.

Take `Cc1noc(C)c1S(=O)(=O)Nc1cccc2c1O[C@H](CN(C)Cc1ccncc1)[C@H](C)CN([C@@H](C)CO)C2=O`: the cytotoxicity call is “inactive”. For `COc1ccc(S(=O)(=O)Nc2ccc3c(c2)C(=O)N([C@@H](C)CO)C[C@@H](C)[C@H](CN(C)S(=O)(=O)c2ccc(Cl)cc2)OCCCC[C@@H](C)O3)cc1`, the cytotoxicity call was “inactive”. Then `C[C@H](CO)N1C[C@H](C)[C@@H](CN(C)C(=O)Nc2ccc(C(F)(F)F)cc2)Oc2ccc(NC(=O)Cc3ccccc3)cc2CC1=O`, with “inactive”; and `CC(C)=CCC1=C(O)C(=O)c2ccccc2C1=O`, with “inactive”. With `CCCC12CN3CC(CCC)(CN(C1)C3[C@@H](O)[C@@H](O)[C@@H](O)CO)C2=O` (stereo not given in full), the cytotoxicity call was “inactive”. Turning to `Cc1ccc(S[C@]2(C(=O)NCC(C)C)CC(=O)N(Cc3cc(C(F)(F)F)cc(C(F)(F)F)c3)[C@@H]2c2ccc(CO)cc2)cc1`, the cytotoxicity call is “inactive”. As for `COc1ccc2c3c(n(c2c1)C)[C@@H](CO)N(C[C@]13CN(C1)C(=O)C1CCOCC1)C(=O)C1CCOCC1`, the cytotoxicity call is “inactive”. In the case of `Cc1ccc(S(=O)(=O)Nc2ccc3c(c2)C(=O)N([C@H](C)CO)C[C@H](C)[C@H](CN(C)Cc2ccc4c(c2)OCO4)OCCCC[C@H](C)O3)cc1`, the cytotoxicity call was “inactive”.

As for `OCCN1CCN(c2ncnc3c2ncn3[C@H]2CN(Cc3cccnc3)C[C@@H](CO)O2)CC1`, the cytotoxicity call was “inactive”.

Regarding `C[C@H]1CN([C@@H](C)CO)C(=O)Cc2cc(NC(=O)CCC(F)(F)F)ccc2O[C@@H]1CN(C)Cc1ccc(Cl)c(Cl)c1`, the cytotoxicity call is “inactive”. `C[C@H]1CCc2c(C(=O)O)csc2C1`: the cytotoxicity call is “inactive”. For the compound `C=CC[C@@H](CC(=O)N(CCO)Cc1ccccc1)C(=O)N[C@@H](COC(=O)[C@@H](CC=C)Cc1ccc(F)cc1)Cc1c[nH]c2ccccc12`, the cytotoxicity call was “active”. Then `CC(C)NC(=O)N[C@@H]1C=C[C@@H](CC(=O)NCCCN(C)C)O[C@H]1CO`, with “inactive”; and `COc1ccc(S(=O)(=O)Nc2ccc3c(c2)C(=O)N([C@H](C)CO)C[C@H](C)[C@H](CN(C)S(C)(=O)=O)O3)cc1`, with “inactive”.

(Values after the antibiotic and cytotoxicity screens of Wong et al. (2023).)
